The entries are a selection whose mix differs from that of the whole data set. The list includes weakly bound sequences.
Legend:
Assay in all cases: protein-binding microarray (PBM)
Details in all cases: PBM: ~300 nM protein, 6 mM HEPES pH 7.8, 80 mM KCl, 0.5 mM EDTA, 0.5 mM EGTA, 6% glycerol, 35 ng/ul poly-dIdC, 1% milk, 1 h, room temperature; Ap Aiptasia and Nv Nematostella (sea anemones) / Co Capsaspora / Aq Amphimedon (sponge) / Dm Drosophila / Hu human; RHD is the Rel homology domain; high values mean tight binding; most listed sequences are background and not binding sites; double strand, one strand shown
[1] = biological target: T1, GST-Nv-NF-kB (Cys allele) (UniProt E5G601)
T1 sequence: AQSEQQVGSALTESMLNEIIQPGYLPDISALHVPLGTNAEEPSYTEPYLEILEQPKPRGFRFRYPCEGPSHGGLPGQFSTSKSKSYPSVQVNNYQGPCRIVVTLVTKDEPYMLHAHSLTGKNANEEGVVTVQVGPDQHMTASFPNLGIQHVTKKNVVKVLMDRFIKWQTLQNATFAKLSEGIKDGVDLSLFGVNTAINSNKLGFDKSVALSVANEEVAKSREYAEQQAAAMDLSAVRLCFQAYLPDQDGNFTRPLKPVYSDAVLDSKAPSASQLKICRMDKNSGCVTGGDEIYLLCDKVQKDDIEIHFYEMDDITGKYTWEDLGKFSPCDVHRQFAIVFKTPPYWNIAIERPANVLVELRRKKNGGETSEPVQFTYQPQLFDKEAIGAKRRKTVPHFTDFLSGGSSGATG

[2] = biological target: T2, GST-Aq-NF-kB (UniProt A9Y5G7)
T2 sequence: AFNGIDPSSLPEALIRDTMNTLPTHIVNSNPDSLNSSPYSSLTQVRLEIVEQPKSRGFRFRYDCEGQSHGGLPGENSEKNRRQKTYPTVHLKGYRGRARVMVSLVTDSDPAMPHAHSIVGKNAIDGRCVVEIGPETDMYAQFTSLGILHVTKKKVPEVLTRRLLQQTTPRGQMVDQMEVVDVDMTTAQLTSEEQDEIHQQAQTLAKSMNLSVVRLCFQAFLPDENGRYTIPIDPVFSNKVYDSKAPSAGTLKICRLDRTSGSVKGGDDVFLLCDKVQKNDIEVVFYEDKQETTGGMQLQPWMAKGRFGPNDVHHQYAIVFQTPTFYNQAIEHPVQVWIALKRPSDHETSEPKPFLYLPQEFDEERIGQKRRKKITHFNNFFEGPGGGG

[3] = biological target: T3, GST-Co-NF-kB (UniProt F1ARL5)
T3 sequence: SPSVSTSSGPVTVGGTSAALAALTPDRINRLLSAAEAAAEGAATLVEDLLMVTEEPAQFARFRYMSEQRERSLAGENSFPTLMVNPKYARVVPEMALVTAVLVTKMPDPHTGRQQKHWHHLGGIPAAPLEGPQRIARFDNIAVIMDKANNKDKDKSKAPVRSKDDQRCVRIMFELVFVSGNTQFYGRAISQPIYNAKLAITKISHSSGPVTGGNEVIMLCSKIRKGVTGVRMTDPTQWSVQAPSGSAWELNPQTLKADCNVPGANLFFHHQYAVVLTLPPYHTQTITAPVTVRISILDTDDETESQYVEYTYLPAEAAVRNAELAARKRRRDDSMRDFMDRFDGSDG

[4] = biological target: T4, GST-Dm-Relish (UniProt Q94527)
T4 sequence: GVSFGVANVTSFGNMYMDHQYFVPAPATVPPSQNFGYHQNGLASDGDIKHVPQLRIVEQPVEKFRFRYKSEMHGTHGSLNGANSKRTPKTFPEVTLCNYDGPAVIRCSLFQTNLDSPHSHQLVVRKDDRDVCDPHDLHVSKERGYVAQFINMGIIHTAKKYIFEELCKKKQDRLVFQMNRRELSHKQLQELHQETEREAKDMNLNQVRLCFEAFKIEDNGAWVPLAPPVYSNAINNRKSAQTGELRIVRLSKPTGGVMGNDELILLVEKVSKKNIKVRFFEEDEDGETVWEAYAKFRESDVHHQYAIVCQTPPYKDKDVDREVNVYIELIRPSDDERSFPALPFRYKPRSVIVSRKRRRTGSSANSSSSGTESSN

Sequence | binding signal [1] | binding signal [2] | binding signal [3] | binding signal [4]
CCGATTAACATCAGGGATTTCCATGATGTTAATCGGGTCTTGATTCGCTTGACGCTGCTG | 3.8 z-score | 5.39 z-score | – | –
CCGATTAACATCAATAATTCCCCTGATGTTAATCGGGTCTTGATTCGCTTGACGCTGCTG | 10.6 z-score | 7.59 z-score | – | –
CCGATTAACATCAAGAGTTTCCCTGATGTTAATCGGGTCTTGATTCGCTTGACGCTGCTG | 5.34 z-score | 5.12 z-score | – | –
CCGATTAACATCAGGGCTCCCCCTGATGTTAATCGGGTCTTGATTCGCTTGACGCTGCTG | 5.82 z-score | 8.12 z-score | 4.76 z-score | –
CCGATTAACATCACAGTTTCCCCTGATGTTAATCGGGTCTTGATTCGCTTGACGCTGCTG | 7.28 z-score | 4.9 z-score | – | –
CCGATTAACATCAAGGGTGGGAATGATGTTAATCGGGTCTTGATTCGCTTGACGCTGCTG | 1.84 z-score | 2.63 z-score | – | –
CCGATTAACATCAAGGGGGGTTATGATGTTAATCGGGTCTTGATTCGCTTGACGCTGCTG | 4.63 z-score | 5.77 z-score | – | –
CCGATTAACATCAGGGAATTAACTGATGTTAATCGGGTCTTGATTCGCTTGACGCTGCTG | 4.33 z-score | 5.19 z-score | 2.63 z-score | –
CCGATTAACATCAGGGGGGTATATGATGTTAATCGGGTCTTGATTCGCTTGACGCTGCTG | 2.99 z-score | 4.1 z-score | – | –
CCGATTAACATCAAGGGGGAATATGATGTTAATCGGGTCTTGATTCGCTTGACGCTGCTG | 8.35 z-score | 6.45 z-score | 7.86 z-score | –
CCGATTAACATCAGGGGGGGGACTGATGTTAATCGGGTCTTGATTCGCTTGACGCTGCTG | 5.11 z-score | 5.29 z-score | – | –
CCGATTAACATCACTATTTTCCCTGATGTTAATCGGGTCTTGATTCGCTTGACGCTGCTG | 4.96 z-score | 3.51 z-score | – | –
CCGATTAACATCAAGTATTTCCCTGATGTTAATCGGGTCTTGATTCGCTTGACGCTGCTG | 5.18 z-score | 5.42 z-score | – | –
CCGATTAACATCAGGGAAAGTAATGATGTTAATCGGGTCTTGATTCGCTTGACGCTGCTG | 4.93 z-score | 4.25 z-score | 3.38 z-score | –
CCGATTAACATCAGGATTTACCCTGATGTTAATCGGGTCTTGATTCGCTTGACGCTGCTG | 4.29 z-score | 6.67 z-score | – | –
CCGATTAACATCACCCCATCTCGTGATGTTAATCGGGTCTTGATTCGCTTGACGCTGCTG | 0.327 z-score | 0.862 z-score | – | –
CCGATTAACATCAAAAAAGTCCCTGATGTTAATCGGGTCTTGATTCGCTTGACGCTGCTG | 11.6 z-score | 8.92 z-score | – | –
CCGATTAACATCAATATCCCCCATGATGTTAATCGGGTCTTGATTCGCTTGACGCTGCTG | 4.94 z-score | 4.55 z-score | – | –
CCGATTAACATCAATTGCCCCCCTGATGTTAATCGGGTCTTGATTCGCTTGACGCTGCTG | 2.81 z-score | 4.63 z-score | – | –

Sequence | binding signal [1] | binding signal [2] | binding signal [3] | binding signal [4]
CCGATTAACATCAGGGAATACCCTGATGTTAATCGGGTCTTGATTCGCTTGACGCTGCTG | 11.2 z-score | 10.2 z-score | – | –
CCGATTAACATCACCAAAATCCCTGATGTTAATCGGGTCTTGATTCGCTTGACGCTGCTG | 2.45 z-score | 2.86 z-score | – | –
CCGATTAACATCAAACCCCCCCCTGATGTTAATCGGGTCTTGATTCGCTTGACGCTGCTG | 5.16 z-score | 5.35 z-score | – | –
CCGATTAACATCAGATTATCCCCTGATGTTAATCGGGTCTTGATTCGCTTGACGCTGCTG | 6.05 z-score | 4.98 z-score | – | –
CCGATTAACATCAAAGTCCCGGGTGATGTTAATCGGGTCTTGATTCGCTTGACGCTGCTG | 3.61 z-score | 3.49 z-score | – | –
CCGATTAACATCAGTAATCCCCATGATGTTAATCGGGTCTTGATTCGCTTGACGCTGCTG | 5.74 z-score | 4.5 z-score | – | –
CCGATTAACATCACCGCCCCCCCTGATGTTAATCGGGTCTTGATTCGCTTGACGCTGCTG | 4.65 z-score | 4.3 z-score | – | –
CCGATTAACATCAGGGATTACCCTGATGTTAATCGGGTCTTGATTCGCTTGACGCTGCTG | 10 z-score | 8.71 z-score | – | –
CCGATTAACATCAAGCCCCCCCCTGATGTTAATCGGGTCTTGATTCGCTTGACGCTGCTG | 4.21 z-score | 4.71 z-score | 4.89 z-score | –
CCGATTAACATCAGGGGCGCCCCTGATGTTAATCGGGTCTTGATTCGCTTGACGCTGCTG | 5.37 z-score | 8.59 z-score | 3 z-score | –
CCGATTAACATCAGGGGAACACATGATGTTAATCGGGTCTTGATTCGCTTGACGCTGCTG | 5.02 z-score | 4.1 z-score | 6.41 z-score | –
CCGATTAACATCAAGGGGGATTCTGATGTTAATCGGGTCTTGATTCGCTTGACGCTGCTG | 8.85 z-score | 7.13 z-score | – | –
CCGATTAACATCAATCAGCGGGGTGATGTTAATCGGGTCTTGATTCGCTTGACGCTGCTG | 0.524 z-score | 0.992 z-score | 2.43 z-score | 0.589 z-score
CCGATTAACATCACAGTCCCCCCTGATGTTAATCGGGTCTTGATTCGCTTGACGCTGCTG | 5.07 z-score | 4.63 z-score | 5.62 z-score | 4.6 z-score
CCGATTAACATCAGGAAAATACCTGATGTTAATCGGGTCTTGATTCGCTTGACGCTGCTG | 2.3 z-score | 4.29 z-score | -0.385 z-score | –
CCGATTAACATCACGGAAACCCCTGATGTTAATCGGGTCTTGATTCGCTTGACGCTGCTG | 4.37 z-score | 5.38 z-score | 2.13 z-score | –
CCGATTAACATCAAATATCCCCCTGATGTTAATCGGGTCTTGATTCGCTTGACGCTGCTG | 8.51 z-score | 6.9 z-score | 8.39 z-score | –
CCGATTAACATCAGGATATACCCTGATGTTAATCGGGTCTTGATTCGCTTGACGCTGCTG | 2.26 z-score | 4.83 z-score | 0.0477 z-score | –
CCGATTAACATCAGGGGACTACCTGATGTTAATCGGGTCTTGATTCGCTTGACGCTGCTG | 5.88 z-score | 7.36 z-score | 2.47 z-score | –
